Source: the supplement of paper PMC3334620
Over roughly 33,000 sequences, “E-score (-0.5 to 0.5)” has its median near -0.035; the highest 2% begin near 0.34. The list shows a part of the results.

molecular target: T1, Mot3 (UniProt P54785); assay: PBM E-score (8-mer binding enrichment) (E-score (-0.5 to 0.5)); higher = stronger / more preferred TF binding; most listed sequences are background and not binding sites; details: protein concentration: 200 nM; construct: GST-full length
T1 sequence: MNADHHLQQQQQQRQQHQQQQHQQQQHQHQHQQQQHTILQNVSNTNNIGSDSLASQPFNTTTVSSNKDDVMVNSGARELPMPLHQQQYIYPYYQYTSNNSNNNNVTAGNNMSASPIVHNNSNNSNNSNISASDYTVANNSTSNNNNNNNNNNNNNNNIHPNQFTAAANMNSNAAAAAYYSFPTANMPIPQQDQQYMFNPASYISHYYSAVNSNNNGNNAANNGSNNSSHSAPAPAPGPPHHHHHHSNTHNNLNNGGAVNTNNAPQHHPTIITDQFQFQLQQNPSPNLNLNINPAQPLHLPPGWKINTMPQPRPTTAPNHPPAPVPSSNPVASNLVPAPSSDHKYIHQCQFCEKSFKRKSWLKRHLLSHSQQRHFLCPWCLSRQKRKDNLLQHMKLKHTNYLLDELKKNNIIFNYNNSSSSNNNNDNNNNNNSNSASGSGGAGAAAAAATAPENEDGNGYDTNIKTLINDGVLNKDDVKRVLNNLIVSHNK
How it was run: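 Universal all-10-mer Agilent arrays, fresh or stripped once, were converted to double-stranded form by primer extension. GST-tagged yeast transcription factors from PURExpress in vitro transcription/translation, full-length or DNA-binding domain only, were applied at about 100-200 nM and detected with fluorescent anti-GST. After masliner normalisation, the Universal PBM Analysis Suite scored each ungapped eight-base word together with its reverse complement by E-score.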

Row | Sequence | PBM E-score
1 | AGGTCAGC | -0.116
2 | CGCCTAAA | 0.18
3 | TATATCAA | 0.0715
4 | CCCATGCG | -0.161
5 | AAGATTTA | 0.154
6 | GCAGCTAC | -0.192
7 | CCCAAACA | 0.158
8 | CGCGATTA | -0.0367
9 | AATATCGC | -0.204
10 | ATTGATCA | -0.0342
11 | AGTGACCC | -0.338
12 | GATTTCGC | 0.167
13 | CCACGCGC | -0.243
14 | GCGTGTAC | 0.337
15 | CCGTTGTA | 0.125
16 | GAGTTTCA | 0.0252
17 | ACCTGAAC | 0.0861
18 | GCTGATCC | -0.291
19 | AGTCCATG | -0.091
20 | CGGTACAA | -0.0471
21 | AGAATAAC | 0.122
22 | AAAATATC | 0.0581
23 | CGTTCTAA | 0.0677
24 | AAGATGGG | -0.22
25 | GGCTCCCA | -0.141

Row | Sequence | PBM E-score
26 | ATGGAGGG | -0.103
27 | ATTGCCGC | -0.054
28 | CAACCACC | -0.163
29 | TCACCCAA | -0.0304
30 | GCCGTCGA | -0.277
31 | AGGCCTTG | -0.141
32 | AAACAACG | 0.0566
33 | GTGGATAA | -0.017
34 | GAGGTCGA | -0.138
35 | AGAAGCCT | 0.0499
36 | AGGCTGGC | -0.2
37 | CGGCCCGC | -0.231
38 | CGGTAGAG | -0.25
39 | CGTTAAGA | 0.163
40 | CTCACAAC | 0.0388
41 | ATCCTCGA | -0.0919
42 | TAATCGGA | 0.0761
43 | TGTGGTAA | 0.243
44 | AGTCACAT | 0.107
45 | ATGGTCAC | -0.265
46 | AACCGGAC | -0.0484
47 | CGCGAGAG | -0.162
48 | ACGGAAAA | 0.0396
49 | ATAGAGGA | -0.134
50 | ATGTAGCG | 0.0644

Row | Sequence | PBM E-score
51 | AGGCAGTG | 0.0624
52 | ACCTCTCG | -0.28
53 | GAGATAAA | 0.0312
54 | ACCTCAGA | -0.264
55 | AATGGATC | -0.198
56 | ACCGGCCA | -0.23
57 | GAGATCCC | -0.261
58 | AGGCCGCC | -0.229
59 | TGCTTCAA | 0.0489
60 | ACATTCCA | 0.103
61 | CCACAGAG | -0.111
62 | CCAAAACA | 0.228
63 | TCTATGAA | -0.0472
64 | ATCCCAGA | -0.189
65 | GGCTGCAA | -0.2
66 | ACCTGCCA | -0.0155
67 | TCATGACA | 0.159
68 | GAACGACC | -0.223
69 | CCTGAAGA | -0.0495
70 | ATTAATCA | 0.147
71 | AGCAGGGA | -0.167
72 | AAAACCGA | -0.14
73 | AATGTCTG | -0.0738
74 | AATCGAGG | -0.141
75 | CGCGATGA | -0.0507

Row | Sequence | PBM E-score
76 | CTCCACAG | -0.0711
77 | TCCCGTCA | 0.017
78 | TAAAACGA | 0.0299
79 | CAATGTAA | 0.34
80 | AATAGAGT | -0.11
81 | CAAGTGAG | -0.0953
82 | ACAACCAG | 0.0744
83 | ATGTACCC | 0.136
84 | ATGGCAAA | -0.0305
85 | AACATGAG | 0.277
86 | CTACACGA | 0.377
87 | AAACATCC | 0.0522
88 | AGGCACAT | 0.49
89 | CACACACA | 0.249
90 | CGCATGAA | -0.123
91 | AGAAGAAC | 0.0298
92 | AATGTATC | 0.181
93 | CCCATCCC | -0.211
94 | CAGCAGAA | -0.17
95 | GCGTCGAA | -0.105
96 | CCTGCGAA | 0.174
97 | CTAACTAG | 0.0273
98 | ACGTAAGT | 0.199
99 | AAGCCTTG | 0.0872
100 | GACTATGC | -0.0237

Row | Sequence | PBM E-score
101 | GCCTGGCC | -0.0455
102 | ATACGATA | 0.149
103 | CCGGAGCC | -0.0488
104 | ACCTTGAA | 0.32
105 | CCTATCCA | 0.0238
106 | ATTTGTCG | 0.102
107 | ACTATGAC | 0.0502
108 | AGGGATGC | -0.0438
109 | ACGAACTG | -0.0561
110 | AAATTACG | 0.249
111 | CAAGAGGG | -0.154
112 | CGGGAGAA | -0.0878
113 | AGGAGTTA | 0.0744
114 | TACGGGAA | -0.171
115 | AACGTATG | 0.0662
116 | ACCACCCG | -0.147
117 | TACACGAA | 0.359
118 | ATCCGTTG | -0.138
119 | GACCACCC | -0.238
120 | TCACATCA | 0.0604
121 | CCTCATGA | -0.15
122 | ACCTAGTC | -0.0377
123 | AGGGCTAT | -0.114
124 | ATGGATGA | -0.00724
125 | ACACCGAG | 0.0562

Row | Sequence | PBM E-score
126 | CCTGGAAG | -0.156
127 | CTGCCGAA | 0.0799
128 | AATGGAAG | -0.0818
129 | ACTGGCGA | -0.159
130 | ACGACATC | 0.0166
131 | CACTACCC | -0.236
132 | CCCGGAAA | -0.138
133 | ACTAGCGC | -0.242
134 | AAAGAGAG | 0.136
135 | CAGGATCG | -0.0672
136 | CAATTTCG | 0.0226
137 | ACTAATCA | -0.0635
138 | ATTATCAA | 0.185
139 | CCGCAACG | 0.11
140 | AACTGATC | 0.0315
141 | CCATCCAC | -0.262
142 | TCATATCA | 0.0586
143 | GTTGGATA | -0.111
144 | ATAGGGTG | -0.196
145 | CAGCCCGG | -0.239
146 | GCGCGTAC | 0.117
147 | CATAAGGA | 0.112
148 | AGTCATCC | -0.233
149 | ATCGCTCC | -0.323
150 | TCAAGAGA | -0.15

Row | Sequence | PBM E-score
151 | CTCCGACA | -0.0307
152 | ACTCTTGG | -0.0672
153 | CCCATCGG | -0.154
154 | AGGCTCTA | 0.00663
155 | ATTAGCCA | -0.147
156 | ACATGATA | 0.35
157 | ACCTCGAA | -0.11
158 | ACAGGAAA | 0.453
159 | CCGGGGAC | -0.307
160 | GTCTATCA | 0.0667
161 | GTACCCCA | -0.113
162 | CTACGTCC | -0.0349
163 | ACAGGGCT | -0.0756
164 | CCCCTCAA | -0.141
165 | GGGCTTAC | -0.0847
166 | AAGGTGTG | -0.0849
167 | ATTTAAGA | 0.0264
168 | ACGTAGCC | -0.0475
169 | ACATTACC | 0.09
170 | AATCCAAA | -0.122
171 | GCCACCTA | -0.00864
172 | CCCGTGGC | -0.33
173 | AATTCACG | 0.0872
174 | CATGGGCA | 0.0949
175 | GTGCAGCA | -0.227

Row | Sequence | PBM E-score
176 | ACAGAATA | 0.218
177 | GAATACAC | 0.363
178 | GCTGTTCA | -0.053
179 | AGGTTACA | 0.267
180 | TAGGACAA | -0.1
181 | GCAAGTGA | 0.0582
182 | CGCACTAG | -0.042
183 | CTATCCCC | -0.301
184 | AATTGACC | 0.0411
185 | CAGTATTA | 0.012
186 | ACGAGAAT | -0.0237
187 | AAACTGCA | -0.0533
188 | CAGGACGA | -0.0466
189 | AGGTTCCC | 0.142
190 | CGCTCTAG | -0.195
191 | AACTGGGC | -0.183
192 | AGGGCCGG | -0.406
193 | AACTTTTC | 0.0979
194 | AAGTAGGG | -0.08
195 | CAACCTAC | 0.0449
196 | GGGACGCA | -0.283
197 | AACATCCC | 0.0421
198 | AAGCATCT | -0.105
199 | CGAGCGAC | -0.144
200 | AGTAACCA | -0.0417

Row | Sequence | PBM E-score
201 | AACCACTC | -0.0639
202 | ACAATTGT | -0.039
203 | ACCTATGA | -0.142
204 | CCCTATCA | -0.0323
205 | GTCTACAC | 0.275
206 | CATCCCTA | -0.092
207 | CCTACTGC | 0.0433
208 | ACCGGAAG | -0.0465
209 | AGAGCTAT | 0.00577
210 | GTCAGTAA | 0.0519
211 | AATATCCG | 0.157
212 | AACTAACA | 0.284
213 | AAATATTC | -0.0103
214 | GGGTAACC | -0.144
215 | CGAGTAAA | 0.167
216 | AAATAGAA | -0.158
217 | GTCTGGGA | -0.0661
218 | CCCTTGGC | -0.368
219 | AGCGGTGC | -0.0648
